# Test results from PubChem BioAssay (EPA / NIEHS).
# For some assays here: This list holds what a sample rich in hits left over. Records with an inconclusive call do not appear. Only a part is listed here, and it is no random draw. Active and inactive are the calls of the source. How the source made its calls, unless noted: active means hit-call score of the fitted dose curve at least 0.9, where 1 is the maximum; inactive means score below 0.9.
# Assays:
# [1] = read-out: Interleukin-8 (IL8), CXCL8 (gene 3576); experiment: BSK_hDFCGF_IL8: BioMAP Diversity Plus: hDFCGF Assay for Interleukin-8 (IL8) Biomarker Activity (AID 2283058); details: actives raise or lower the signal; primary human foreskin fibroblasts
# Outline: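 ELISA read-out of IL-8 from primary human foreskin fibroblast cultures taken 24 h after dosing; values are bidirectional fits relative to DMSO vehicle.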
# [2] = read-out: Signal transducer and activator of transcription 3 (Homo sapiens) (UniProt P40763); experiment: LTEA_HepaRG_STAT3: Life Technologies and Expression Analysis (LTEA) Assay for Signal transducer and activator of transcription (STAT3) using HepaRG (AID 2283529); details: actives raise or lower the signal; mRNA level, 48 h
# Outline: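 Differentiated HepaRG cells, serum-free induction medium, dosed 48 h in duplicate, 8 half-log concentrations from 100 uM in 0.5% DMSO. STAT3 mRNA by qRT-PCR, normalised to ACTB, GAPDH, POLR2A; bidirectional fit versus DMSO.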
# [3] = CCTE_Simmons_MITO_basal_resp_rate: CCTE's HepG2 Seahorse XF Respirometric Screening Assay at Basal Respiratory State, Simmons Lab (AID 2284001); details: actives raise or lower the signal
# Outline: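 HepG2 oxygen consumption on Seahorse XF96 after compound injection, 7 concentrations 125 nM–100 uM final, reads every 6 min over 72 min. Triplicate biological replicates; bidirectional fit vs DMSO; fenpyroximate and 2,4-dinitrophenol controls.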
# [4] = CCTE_Shafer_MEA_dev_spike_duration_mean: CCTE's Neural Network Formation Assay for Mean Spike Duration, Shafer Lab (AID 2284051);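 further: mean network spike duration pooled as area under curve over DIV 5 to 12 recordings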
# Outline: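 With DMSO as baseline, loss of mean network spike duration was scored from extracellular recordings of rat cortical neurons on MEA plates. Exposure spanned plating to DIV 12; the four recording days were collapsed into one AUC value.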
# [5] = CCTE_Shafer_MEA_dev_LDH: CCTE's Lactate Dehydrogenase Assay for Cytotoxicity in the Neural Network Formation Assay, Shafer Lab (AID 2284068; active means hit-call score of the fitted dose curve at least 0.9, where 1 is the maximum;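 further: exposure for twelve days from plating with re-dosing on DIV 5 and 9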)
# Outline: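 Developing rat cortical networks on MEA plates are exposed to compound for 12 days from plating. LDH activity is measured spectrophotometrically, with DMSO as baseline.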
# [6] = CCTE_Shafer_MEA_dev_correlation_coefficient_mean: CCTE's Neural Network Formation Assay for Mean Correlation Coefficient, Shafer Lab (AID 2284093)
# Outline: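 Extracellular firing from rat cortical networks on 48-well MEAs, DMSO-referenced, negative fitting direction. Compound present from plating to DIV12; mean pairwise correlation per well integrated over DIV5–12 recordings by trapezoidal AUC.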
# [7] = BSK_hDFCGF_SRB: Viability Assessment in the BioMAP Diversity Plus: hDFCGF Assay (AID 2283061); details: primary human foreskin fibroblasts;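 further: cells exposed to compound for 24 h before the read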
# Outline: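 Primary human foreskin fibroblasts; 24 h post-dose; fixed 10% TCA, stained 0.1% SRB, A560 read; total protein as overt cytotoxicity measure; curves fit bidirectionally vs DMSO control.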
# [8] = read-out: Interferon-gamma inducible Protein 10 (IP10), CXCL10 (gene 3627); experiment: BSK_KF3CT_IP10: BioMAP Diversity Plus: KF3CT Assay for Interferon-gamma inducible Protein 10 (IP10) Biomarker Activity (AID 2283068); details: actives raise or lower the signal; primary human keratinocytes with fibroblasts
# Outline: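 Signal is secreted/surface IP-10 by ELISA in a human primary skin co-culture of keratinocytes and foreskin fibroblasts, taken 24 h post-dosing; DMSO served as negative control.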
# [9] = target: Peroxisome proliferator-activated receptor gamma (Homo sapiens) (UniProt P37231); experiment: NVS_NR_hPPARg: NovaScreen (NVS) Nuclear Receptor Binding Assay for human Peroxisome Proliferator-activated Receptor gamma (PPARg) (AID 2283370; active means hit-call score of the fitted dose curve at least 0.9, where 1 is the maximum)
# Outline: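 FP read-out, 2 h post-dose, cell-free extracted receptor protein. Signal loss vs DMSO negative control = binding activity. Single-conc duplicate HTS at 25 uM; concentration-response follow-up for actives.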
# [10] = target: Bile acid receptor (Homo sapiens) (UniProt Q96RI1); experiment: OT_FXR_FXRSRC1_0480: Odyssey Thera (OT) 8-hour HEK293T Protein-Complementation Assay for Farnesoid X receptor/SRC-1 Co-activator (AID 2283383; active means hit-call score of the fitted dose curve at least 0.9, where 1 is the maximum)
# Outline: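 Co-activator recruitment to FXR was measured in living HEK293T cells, where interaction of the two fused partners restored an active fluorescent reporter. Signal gain after 8 h treatment was referenced to DMSO.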
# [11] = target: Peroxisome proliferator-activated receptor gamma (Homo sapiens) (UniProt P37231); experiment: OT_PPARg_PPARgSRC1_0480: Odyssey Thera (OT) 8-hour Protein-Complementation Assay for Peroxisome Proliferator-activated Receptor Gamma / SRC-1 Co-activator (AID 2283387; active means hit-call score of the fitted dose curve at least 0.9, where 1 is the maximum;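 further: nuclear to cytoplasmic split Venus YFP fluorescence ratio reporting PPARg SRC-1 interaction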)
# Outline: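 Split-YFP (IFP1/IFP2) PPARg/SRC-1 reporter, HEK293T, 37 °C, 5% CO2; 8 h compound; formaldehyde fix + Draq5; high-content imaging, N/C ratio, ≥350 cells/image, positive direction vs DMSO.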
# [12] = STM_H9_OrnithineISnorm_perc: Stemina devTOX quickPredict H9 human embryonic stem cell (hESC)-based Assay for Ornithine (ORN) Metabolite Biomarker, Normalized (AID 2283712);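 further: ornithine released into spent medium during last day measured by mass spectrometry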
# Outline: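 Cells: undifferentiated H9 hESC. Dosing: 72 h, media replaced every 24 h. Sample: final 24-h conditioned media, 40% acetonitrile. Read: UPLC-HRMS ornithine area vs 13C standard, % DMSO control.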
# [13] = STM_H9_CystineISnorm_perc: Stemina devTOX quickPredict H9 human embryonic stem cell (hESC)-based Assay for Cystine (CYSS) Metabolite Biomarker, Normalized (AID 2283713)
# Outline: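 Secreted cystine was measured by UPLC-HRMS in H9 hESC medium after 72h compound exposure with 24-hourly replenishment. Values are standard-normalized areas relative to 0.1% DMSO.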
# [14] = ACEA_ER_AUC_viability: ACEA Biosciences xCELLigence Real-Time Cell Analysis on Estrogen Receptor Agonism for Viability (AID 2283782; active means hit-call score of the fitted dose curve at least 0.9, where 1 is the maximum;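 further: continuous compound exposure with impedance area under curve over 80 h; hit means loss of impedance signal meaning reduced cell growth or viability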)
# Outline: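 T47D cells preconditioned in phenol red-free RPMI with charcoal-stripped FBS, then dosed with 8-point 1:4 series from 100 uM (up to 0.5% DMSO). Impedance monitored up to ~80 h; area-under-curve loss versus DMSO taken as viability.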
# [15] = ATG_XTT_Cytotoxicity_XSP1: Cytotoxicity Assessment in the Attagene TRANS-FACTORIAL Multi-Species (XSP1) HepG2 Assay (AID 2283810; active means hit-call score of the fitted dose curve at least 0.9, where 1 is the maximum)
# Outline: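 XTT viability readout taken at 24 hours post-dosing in HepG2 liver cells co-treated with 3 nM 6-alpha-fluorotestosterone. Signal loss relative to DMSO controls reflects cytotoxicity.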
# DIO1 (gene 1733) = experiment: CCTE_GLTED_hDIO1: CCTE's human Deiodinase 1 (DIO1) Inhibition Assay, Great Lakes Toxicology and Ecology Division (GLTED) Lab (AID 2283987; active means hit-call score of the fitted dose curve at least 0.9, where 1 is the maximum;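 further: isolated human DIO1 enzyme in a cell-free setup rather than cells; enzyme activity read as free iodide liberated from substrate via Sandell-Kolthoff colorimetry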)
# Outline: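 Steps: human DIO1 enzyme plus test chemical, 3 h incubation; free iodide then quantified in a second Sandell-Kolthoff step by absorbance. DMSO served as negative control and baseline.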
# [16] = CCTE_Shafer_MEA_dev_per_network_spike_spike_percent: CCTE's Neural Network Formation Assay for Percent of Spikes in a Network Spike, Shafer Lab (AID 2284054)
# Outline: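 Rat primary cortical neurons were grown on 48-well MEA plates (16 electrodes/well), exposed from plating day 0 through day 12, with treatment renewed on DIV 5 and 9. Percent of spikes within 0.05 s network-spike peaks was measured, summarised as AUC across days 5, 7, 9, 12.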
# Chain of UniProt P37231 (P37231 whole entry, looked up): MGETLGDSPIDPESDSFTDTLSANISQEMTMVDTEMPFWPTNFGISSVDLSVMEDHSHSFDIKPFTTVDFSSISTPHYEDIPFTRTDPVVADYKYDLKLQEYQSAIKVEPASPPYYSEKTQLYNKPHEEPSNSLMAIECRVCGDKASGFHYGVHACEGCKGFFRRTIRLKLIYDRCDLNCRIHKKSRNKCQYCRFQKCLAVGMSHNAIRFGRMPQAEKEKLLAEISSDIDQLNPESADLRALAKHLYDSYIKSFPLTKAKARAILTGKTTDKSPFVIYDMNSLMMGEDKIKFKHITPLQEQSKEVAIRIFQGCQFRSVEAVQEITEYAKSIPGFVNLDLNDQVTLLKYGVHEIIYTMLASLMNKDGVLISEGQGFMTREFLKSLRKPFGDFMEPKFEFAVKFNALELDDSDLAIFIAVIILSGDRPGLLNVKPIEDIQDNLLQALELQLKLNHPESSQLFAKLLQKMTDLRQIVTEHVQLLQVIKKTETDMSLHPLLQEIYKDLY
# Chain of UniProt Q96RI1 (Q96RI1 whole entry, looked up, the tested form may be a part): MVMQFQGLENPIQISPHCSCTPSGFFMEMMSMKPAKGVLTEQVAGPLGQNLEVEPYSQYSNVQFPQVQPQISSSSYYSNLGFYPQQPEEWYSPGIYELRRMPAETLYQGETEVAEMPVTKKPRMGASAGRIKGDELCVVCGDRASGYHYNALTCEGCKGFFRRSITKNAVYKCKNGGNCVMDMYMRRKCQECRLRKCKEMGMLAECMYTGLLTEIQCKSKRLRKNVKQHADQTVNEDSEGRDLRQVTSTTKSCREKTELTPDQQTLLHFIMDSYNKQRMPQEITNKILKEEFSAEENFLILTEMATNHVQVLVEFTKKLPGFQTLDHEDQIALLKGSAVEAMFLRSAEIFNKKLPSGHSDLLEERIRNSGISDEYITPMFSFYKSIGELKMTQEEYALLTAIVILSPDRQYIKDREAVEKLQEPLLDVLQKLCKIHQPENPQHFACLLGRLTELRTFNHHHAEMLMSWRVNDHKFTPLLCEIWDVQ
# Chain of UniProt P40763 (P40763 whole entry, looked up): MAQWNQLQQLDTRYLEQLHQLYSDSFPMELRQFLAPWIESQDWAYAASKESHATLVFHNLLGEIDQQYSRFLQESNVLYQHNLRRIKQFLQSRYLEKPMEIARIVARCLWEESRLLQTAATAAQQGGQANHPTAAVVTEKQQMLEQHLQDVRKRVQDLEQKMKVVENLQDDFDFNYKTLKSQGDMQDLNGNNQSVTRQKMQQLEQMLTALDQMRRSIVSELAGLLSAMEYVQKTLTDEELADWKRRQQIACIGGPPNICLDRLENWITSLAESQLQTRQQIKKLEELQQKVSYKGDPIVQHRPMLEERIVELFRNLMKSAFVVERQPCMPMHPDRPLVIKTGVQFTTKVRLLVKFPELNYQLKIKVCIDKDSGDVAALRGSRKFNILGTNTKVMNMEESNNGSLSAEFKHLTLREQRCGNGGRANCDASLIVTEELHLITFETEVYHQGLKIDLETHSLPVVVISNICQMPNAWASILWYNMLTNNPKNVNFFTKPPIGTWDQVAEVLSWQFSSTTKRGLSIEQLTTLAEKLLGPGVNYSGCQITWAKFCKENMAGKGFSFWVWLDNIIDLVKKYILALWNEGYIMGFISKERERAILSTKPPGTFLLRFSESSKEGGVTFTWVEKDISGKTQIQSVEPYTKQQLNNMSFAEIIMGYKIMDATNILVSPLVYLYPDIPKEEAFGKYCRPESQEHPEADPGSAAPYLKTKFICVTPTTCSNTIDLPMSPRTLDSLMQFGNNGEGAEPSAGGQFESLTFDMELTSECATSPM
compound,measurement,setting,value
C=CCC1=C(C)[C@@H](OC(=O)[C@@H]2[C@@H](C=C(C)C)C2(C)C)CC1=O,AC50,[1],active: 38.8 µM
same,outcome,[2],inactive
same,AC50,[3],active: 50.2 µM
same,outcome,[4],inactive
same,AC50,[5],active: 17.2 µM
same,outcome,[6],inactive
O=C(CCl)NCO,outcome,[7],inactive
O=C1C2(Cl)C3(Cl)C4(Cl)C(Cl)(Cl)C5(Cl)C3(Cl)C1(Cl)C5(Cl)C24Cl (configuration not stated),AC50,[8],active: 11.5 µM
same,outcome,[9],inactive
same,AC50,[10],active: 11 µM
same,outcome,[11],inactive
same,AC50,[12],active: 1.98 µM
same,AC50,[13],active: 1.98 µM
same,AC50,[14],active: 10.5 µM
same,outcome,[15],inactive
same,AC50,DIO1 (gene 1733),active: 27.7 µM
same,AC50,[16],active: 1.98 µM
